Some of the results follow.
The molecules below were run on T1, C. trachomatis L2/434/Bu expressing GFP (CTL2-GFP). Conditions: total inclusion area; 28.5 h, 10 µM; inhibitor.
T1 construct: L2/434/Bu GFP intracellular growth in HeLa cells
Parameters: species or system HeLa; C. trachomatis total inclusion area by high-content imaging, normalised to DMSO
Summary of the method: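 Bulk GFP and resorufin signals were read first. Wells were then fixed, stained with Hoechst and imaged to detect GFP inclusions and host nuclei. MICs followed the previously described calculation.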
`O=[N+]([O-])c1nn(-c2ccccc2)[n+]([O-])c1Nc1ccc(Br)cc1` [CBK268504] was tested, and the “% of control remaining” value was 76.1446. `O=C(O)CCCC(=O)Nc1cccc([N+](=O)[O-])c1` [CBK261530] was tested, and the “% of control remaining” value was 95.6998. For `COC(=O)c1c(NC(=O)c2cnccn2)sc2c1CCC(C)C2` (stereo not drawn) [CBK262654], the “% of control remaining” value was 101.685. For `CN(C)c1cc(CNC(=O)c2cc3ccccc3oc2=O)ccn1` [CBK297917], the “% of control remaining” value was 90.613. `O=C(O)CCNS(=O)(=O)c1cccc(Cl)c1` [CBK267328] was tested, and the “% of control remaining” value was 97.7666. `O=C(Nc1ccc(-c2nc3ccccc3s2)c(O)c1)c1ccc(-c2ccccc2)cc1` [CBK263979] was tested, and the “% of control remaining” value was 109.141. In the case of `CC(C)(CN1C(=O)c2ccccc2C1=O)C(O)C(=O)O` (stereo not drawn) [CBK286582], the “% of control remaining” value is reported as 105.14. With `CCC(c1ccc(F)cc1)N(C)C(=O)Cn1cc(C(=O)NC2CCCCC2)ccc1=O` (stereo not drawn) [CBK286106] the “% of control remaining” value was 8.797. For `C[C@H]1CN2CCCC2CN1Cc1ccc2c(c1)CCO2` (stereo partly drawn) [CBK285443], the “% of control remaining” value was 94.7126. `CCOC(=O)C1=C(Nc2ccc(O)cc2)C(=O)N(C(C)(C)C)C1` [CBK005677] was tested, and the “% of control remaining” value was 62.22. For `COc1ccc(/C=C/C(=O)C2CC2)c(C(=O)O)c1OC` [CBK286639], the “% of control remaining” value was 79.4377. With `CC(=O)Nc1ccc(-c2csc(NC(=O)NS(=O)(=O)c3ccc(C)cc3)n2)cc1` [CBK297084] the “% of control remaining” value was 92.7486. In the case of `CC(Sc1nc2ccccc2c(=O)n1C1CC1)C(=O)N1CCOCC1` (stereo not drawn) [CBK306045], the “% of control remaining” value is reported as 73.2735. With `COc1ccc(-n2nnnc2SCC(=O)c2ccc(O)c(O)c2)cc1` [CBK293969] the “% of control remaining” value was 102.885. With `C(=N\Nc1nnnn1-c1ccccc1)/c1ccco1` [CBK007334] the “% of control remaining” value was 87.2669. For `O=C(CNC(=O)c1ccc2c(c1)OCCO2)N/N=C/c1cccs1` [CBK261987], the “% of control remaining” value was 90.1873. With `O=C1c2ccccc2C(=O)c2c1cccc2S(=O)(=O)N1CCN(C(=O)C2CCCO2)CC1` (stereo not drawn) [CBK200038] the “% of control remaining” value was 0.3745. `CCOC(=O)c1ccc2ncc3c(=O)nc(N)sc3c2c1` [CBK291218] was tested, and the “% of control remaining” value was 99.7351. With `OCC[C@H]1CN2CCCC2CN1Cc1cccc(Cl)c1Cl` (stereo partly drawn) [CBK285429] the “% of control remaining” value was 84.8156. `Cn1ccc(N2CCCC(NC(=O)c3scnc3C(C)(C)C)C2=O)n1` (stereo not drawn) [CBK305453] was tested, and the “% of control remaining” value was 87.1028. `O=C(c1cc(C(F)(F)F)cc(C(F)(F)F)c1)N1CCN(Cc2ccc3c(c2)OCO3)CC1` [CBK074756] was tested, and the “% of control remaining” value was 61.846. For `Cn1ccc2cc(NS(=O)(=O)c3ccc4[nH]c(=O)[nH]c(=O)c4c3)ccc21` [CBK286364], the “% of control remaining” value was 91.1232. `CC(=O)Nc1cccc(-c2cc(N3CCN(C(=O)c4ccco4)CC3)ncn2)c1` [CBK036959] was tested, and the “% of control remaining” value was 93.8107. In the case of `COc1ccccc1N1CCN(CC(O)COCc2ccc3c(c2)OCO3)CC1` (stereo not drawn) [CBK278323C], the “% of control remaining” value is reported as 102.964. For `CC(C)[C@H](CO)Nc1cncc(-c2cccc3ccccc23)n1` [CBK065501], the “% of control remaining” value was 94.6941. With `O=C(O)c1ccc(NC(=O)C2CCN(S(=O)(=O)c3ccccc3)CC2)cc1` [CBK265181] the “% of control remaining” value was 78.4743. With `CN1C(=O)C(CC(=O)Nc2ccc(F)cc2)N(CCc2ccccc2)C1=S` (stereo not drawn) [CBK263861] the “% of control remaining” value was 84.3096. For `CC1CCN(CCN2CCn3c2nc2ccccc23)CC1` [CBK265467B], the “% of control remaining” value was 82.0447. In the case of `CC(C)(CO)CNc1cncc(-c2cccs2)n1` [CBK065599], the “% of control remaining” value is reported as 87.3553. With `O=C1c2ccccc2CN1c1ccccc1` [CBK113189] the “% of control remaining” value was 51.86. For `CC(=O)Nc1cccc(NC(=O)CSc2ccc(C(F)(F)F)cc2[N+](=O)[O-])c1` [CBK264758], the “% of control remaining” value was 100.412. With `O=c1[nH]nc2c(S(=O)(=O)N3CCCC3)cccn12` [CBK288460] the “% of control remaining” value was 66.7185. For `CC(C)NC(=O)c1cc(C2CN(Cc3ccc4ncccc4c3)CCO2)nc2ccccc12` (stereo not drawn) [CBK285895], the “% of control remaining” value was 91.655. With `CCCC(=O)N1CCCCC1c1c(-c2onc(C)c2C)cnn1C` (stereo not drawn) [CBK282259] the “% of control remaining” value was 74.5954. `O=C(Nc1ccncc1)c1cc2cc(F)ccc2[nH]1` [CBK107346] was tested, and the “% of control remaining” value was 91.2867. For `O=C(Nc1cccc(OCc2ccccc2)c1)c1cnc(-c2ccc(Cl)cc2)c(-c2ccco2)c1` [CBK037429], the “% of control remaining” value was 141.097. With `CC(C)CC(NC(=O)Cc1cccc(O)c1)c1ncnn1C` (stereo not drawn) [CBK307050] the “% of control remaining” value was 81.6582. In the case of `CC1(NC(=O)Cn2c(C(F)(F)F)nc3ccccc32)CCC1` [CBK281606], the “% of control remaining” value is reported as 106.242. `COc1ccc(CN2CCOCC2CC(=O)O)cc1Cn1cncn1` (stereo not drawn) [CBK307220] was tested, and the “% of control remaining” value was 75.7427. `COc1ccc(CCNc2nc(-c3ccccn3)cs2)cc1OC` [CBK267260] was tested, and the “% of control remaining” value was 117.396. `CS(=O)(=O)c1ccc(-c2ccc3c(c2)COC(C2CCN(C(=O)c4ccccc4O)CC2)O3)cc1` (stereo not drawn) [CBK158682] was tested, and the “% of control remaining” value was 88.6138. For `Cc1nn(-c2ccccc2)c2c1C(c1cnn(C)c1)SCC(=O)N2` (stereo not drawn) [CBK287896], the “% of control remaining” value was 71.5217. With `Cc1ccn(CCC(=O)N2CCCC(c3cc4cccnc4[nH]3)C2)n1` (stereo not drawn) [CBK284927] the “% of control remaining” value was 102.815. With `c1ccc(CCNc2nc(-c3cccs3)cn3ccnc23)nc1` [CBK066633] the “% of control remaining” value was 94.3988. For `N#Cc1c(NC(=O)CSc2nnc(N)s2)sc2c1CCCC2` [CBK266649], the “% of control remaining” value was 101.219. In the case of `Cc1ccnc2nc(C(=O)OC(C)C(=O)N3CCCCCC3)nn12` (stereo not drawn) [CBK306155], the “% of control remaining” value is reported as 70.9117. For `O=c1oc2ccccc2c2c1nnn2CCCN1CCOCC1` [CBK261470C], the “% of control remaining” value was 90.8889. In the case of `CC[C@H]1CN(C(=O)c2cccnc2)CC[C@H]1CC(=O)N1CCC(C(N)=O)CC1` [CBK288772], the “% of control remaining” value is reported as 71.7979. In the case of `COc1cc(NC(=O)c2cnc(-c3ccc(Cl)cc3)c(-c3ccco3)c2)cc(C(F)(F)F)c1` [CBK037570], the “% of control remaining” value is reported as 83.7047. In the case of `Cc1cc(C)c2nc(NC(=O)c3ccccc3)sc2c1` [CBK287308], the “% of control remaining” value is reported as 100.248. For `COc1c(Cl)cc(Cl)cc1CNC1CCCc2c1cnn2C` (stereo not drawn) [CBK304305C], the “% of control remaining” value was 81.0365. For `CC(=O)COc1cc(OCC(C)=O)c2c3c(c(=O)oc2c1)CCC3` [CBK307219], the “% of control remaining” value was 56.857. For `O=C(O)c1cc(-c2ccccc2)nc(Nc2nc3ccccc3s2)n1` [CBK264665], the “% of control remaining” value was 101.006. In the case of `COc1cccc(-c2nn(CCC#N)cc2C(N)=O)c1` [CBK305835], the “% of control remaining” value is reported as 104.015. With `COc1cccc(-c2nnn(CC(=O)O)n2)c1` [CBK068202] the “% of control remaining” value was 86.7033. `O=[N+]([O-])c1ccc(COc2cccc(/C=N/Nc3nc4ccccc4s3)c2)cc1` [CBK262160] was tested, and the “% of control remaining” value was 96.131. `CS(=O)(=O)N(CC(=O)Nc1ccc(S(N)(=O)=O)cc1)Cc1ccc(Cl)cc1` [CBK267512] was tested, and the “% of control remaining” value was 96.8392. With `CC(C)(C)c1ccc(-n2cc(-c3ccc(F)cc3)nn2)cc1` [CBK113112] the “% of control remaining” value was 78.2042. For `CCN(C(=O)Nc1ccc(-c2ccco2)cc1)C1CCOCC1` [CBK306916], the “% of control remaining” value was 86.5469. `Cc1nc(O)cc(CCn2cc(-c3cncnc3)nn2)n1` [CBK306712] was tested, and the “% of control remaining” value was 73.9645. With `O=S(=O)(Nc1ccc(C(O)(C(F)(F)F)C(F)(F)F)cc1)c1ccc(-c2ccon2)s1` [CBK062105] the “% of control remaining” value was 109.019. `OC1CCN(c2nccc(C(F)(F)F)n2)CC1` [CBK038372] was tested, and the “% of control remaining” value was 20.7549. In the case of `CCOc1cc(/C=C2\SC(=S)N(Cc3ccccc3)C2=O)cc(Cl)c1OC(=O)c1ccco1` [CBK265509], the “% of control remaining” value is reported as 92.9603. With `CCN1CCCC1CNC(=O)C(=O)Nc1ccccc1OC` (stereo not drawn) [CBK266865] the “% of control remaining” value was 87.5843. For `Cc1cccc(NC(=O)CC(C(=O)O)N2CCOCC2)c1` (stereo not drawn) [CBK266925], the “% of control remaining” value was 93.1622. `COc1cccc(C(=O)NC(=S)Nc2ccc(C(=O)O)c(Cl)c2)c1` [CBK265065] was tested, and the “% of control remaining” value was 108.391. For `CN1CCCCCC1c1nc(-c2ccccc2)nn1CCCO` (stereo not drawn) [CBK307653], the “% of control remaining” value was 59.8541. For `O=C(c1c[nH]c(C(=O)N2CCN(c3ccccn3)CC2)c1)c1ccc(Cl)cc1Cl` [CBK107419], the “% of control remaining” value was 77.1789. `COc1nc(NCc2ccco2)nc(OC)n1` [CBK027479] was tested, and the “% of control remaining” value was 61.0429. With `Cc1cc(-c2csc(CC(C)n3cc(Cl)cn3)n2)on1` (stereo not drawn) [CBK304700] the “% of control remaining” value was 82.9934. For `CC1CC(Nc2ccccc2)c2ccccc2N1C(=O)CCCC(=O)O` (stereo not drawn) [CBK286960], the “% of control remaining” value was 98.7442. In the case of `N#CCCN(C(=O)NC1CCc2ccccc21)C1CCCCC1` (stereo not drawn) [CBK156383], the “% of control remaining” value is reported as 113.694. `Cc1ccnn1CCC(=O)NC1(c2ccccc2F)CCCC1` [CBK283691] was tested, and the “% of control remaining” value was 65.2439. For `Cc1ccc(-c2nnc(CNC(=O)C3(c4ccccc4)CC3)o2)s1` [CBK284642], the “% of control remaining” value was 65.8143. `N#Cc1nccnc1S(=O)(=O)CCO` [CBK023595] was tested, and the “% of control remaining” value was 82.6535. With `CC(C)(C)c1oc(C(=O)O)cc1CN1CCCC1` [CBK287136] the “% of control remaining” value was 95.4823. With `CC(C)(O)CCN(Cc1ccc(-c2ccc(S(C)(=O)=O)cc2)nc1)C1CCN(C(=O)OC(C)(C)C)CC1` [CBK167517] the “% of control remaining” value was 99.2056. In the case of `CCCCOc1ccc(-c2nnn(CC(=O)NCc3ccccc3)n2)cc1` [CBK068557], the “% of control remaining” value is reported as 68.8728. With `COc1cccc(CNCc2ccco2)c1OCc1ccccc1F` [CBK270271C] the “% of control remaining” value was 71.1519. For `COc1cccc(/C=N/NC(=O)C(=O)NCc2ccccn2)c1O` [CBK262097], the “% of control remaining” value was 96.7031. For `c1cncc(-c2cncc(NCC3CCOCC3)n2)c1` [CBK037195], the “% of control remaining” value was 144.713.
